# PubChem BioAssay AID463173 (ICCB-Longwood Screening Facility, Harvard Medical School, 2010)
# Among all 52,000 compounds or so, about 1,700 (3.3%) were called active. No stated cut-off is given here; in the data, active means survival mostly below about 52% (no sharp cut-off); inactive means mostly above about 56%. The list shows a part of the results.
# Tested on: Wild type
# Experiment: growth inhibition of S. aureus wild type versus tarO mutant, primary screen, teichoic acid synthesis inhibitors, RN4220, OD600 (AID 463173)
# Conditions: S. aureus RN4220 wild type/DeltatarO growth, OD600, 18 h, hits give low values, screened at 18.75 µg/mL (by protocol)
row,Structure (SMILES),survival
1,Cc1ccc(Nc2ncc(C(=O)N3CCN(c4ccc(F)cc4)CC3)c3ccccc23)cc1Cl,inactive: 105%
2,CCc1ccc(NC(=O)c2ccc(F)c(S(=O)(=O)N3CCC4(CC3)OCCO4)c2)cc1,inactive: 82%
3,COc1cccc(CNS(=O)(=O)c2cc3[nH]c(=O)c(=O)[nH]c3cc2C)c1,inactive: 60%
4,Cc1ccc(C)c(-n2c3nc(=O)[nH]c(=O)c-3cc3c(C)nn(-c4ccccc4)c32)c1,inactive: 89%
5,COc1ccc2o/c(=N\O)c(C(N)=O)cc2c1,inactive: 97%
6,CCOC(=O)c1ccc(N2C(=O)c3n[nH]c(C)c3C2c2ccccc2OC)cc1 (configuration not stated),inactive: 79%
7,N#Cc1ccc(C(=O)NCc2ccc3c(c2)CCN3C(=O)c2ccc(F)cc2)cc1,inactive: 59%
8,Cc1ccccc1Cn1c2ccccc2c2cnn(CC(=O)NC(C)CCc3ccccc3)c(=O)c21 (configuration not stated),inactive: 77%
9,CCc1ccc2oc(C(=O)Nc3c(C)n(C)n(-c4ccccc4)c3=O)cc(=O)c2c1,inactive: 105%
10,COC(=O)c1ccc(NC(=O)CN(CCc2ccccc2)S(=O)(=O)c2ccc(OC)cc2)cc1,inactive: 68%
11,Cc1cccc(CCNc2ncnc3onc(-c4ccc(Cl)cc4)c23)c1,inactive: 27%
12,Cc1[nH]c2ccc(-c3nnc(SCC(=O)N4CCCC4)o3)cc2c1C,inactive: 101%
13,Cc1cccc(Cn2nc(C)n3c(cc4cc(C)ccc43)c2=O)c1,inactive: 79%
14,CCOc1ccc(C(=O)NCCc2sc(-c3ccc(OC)c(OC)c3)nc2C)cc1,inactive: 129%
15,Cc1ccccc1OCC(=O)Nc1sc2c(c1C(=O)OC(C)C)CCCC2,inactive: 69%
16,Cc1ccc(C)c(N2CCN(C(=O)c3cc(C)nc4c3c(C)nn4-c3cccc(F)c3)CC2)c1,active: 0%
17,Cc1ccc(C)c(N2CCN(c3ccc4cc(S(=O)(=O)N5CCC(C)CC5)ccc4n3)CC2)c1,inactive: 100%
18,CCOc1ccc(-n2c(SCC(=O)N3CCC(C)CC3)nc3c([nH]c4ccccc43)c2=O)cc1,inactive: 68%
19,CN1C=CC=C/C1=C1\SC(=S)N(C2CCCCC2)C1=O,inactive: 120%
20,CCn1c(C(=O)NCc2ccc(OC(C)C)cc2)cc2oc3ccccc3c21,inactive: 20%
21,CC1CCC(C(C)C)C(OC(=O)Cn2nnc3c(cnn3-c3ccccc3)c2=O)C1 (configuration not stated),inactive: 114%
22,Cc1ccc2c(c1)c(=O)c1ccccc1n2CCCC(=O)Nc1cc(Cl)ccc1C,inactive: 123%

row,Structure (SMILES),survival
1,Cc1oc2ccc(O)c(CN3CCN(C)CC3)c2c1C(=O)Nc1cccc(Cl)c1C,inactive: 82%
2,Cc1cccc(N2C(=O)C(CC(=O)Nc3ccc(Cl)cc3)N(Cc3ccco3)C2=O)c1 (configuration not stated),inactive: 78%
3,CCCOc1ccc(C(=O)Nc2cc3c(cc2N2CCOCC2)n(C)c(=O)n3C)cc1,inactive: 142%
4,Cc1cccc(-n2c(=O)c3c(c4cc(C)ccc4n3C)n(CC(=O)NCC3CCCO3)c2=O)c1 (configuration not stated),inactive: 86%
5,Cc1oc(-c2cccc(Cl)c2)nc1CS(=O)(=O)CC(=O)NCc1ccccc1Cl,inactive: 75%
6,Cc1nn(CC(=O)O)c(=O)c2cc3cc(F)ccc3n12,inactive: 122%
7,O=C(Nc1cc(Cl)cc(Cl)c1)c1ccc2c(c1)N(Cc1cccc(Cl)c1)C(=O)c1ccccc1S2=O (configuration not stated),inactive: 88%
8,COC(=O)c1ccc(C2c3c(oc4ccccc4c3=O)C(=O)N2c2nc(C)c(C(=O)OC)s2)cc1 (configuration not stated),inactive: 67%
9,COc1ccccc1NC(=O)c1cc(S(=O)(=O)N2CCN(c3ccccc3Cl)CC2)ccc1F,inactive: 66%
10,COc1ccc2c(CNCc3cccs3)c(C(=O)O)n(Cc3ccc(C)cc3)c2c1,inactive: 85%
11,COc1ccc(NC(=O)Cn2c(=O)n(Cc3nc(-c4ccccc4)no3)c(=O)c3cc4c(cc32)OCO4)c(OC)c1,inactive: 78%
12,O=C(Nc1ccc2oc(-c3cccnc3)nc2c1)c1ccc(Br)cc1,inactive: 76%
13,Cc1nn(CC(=O)NCc2ccc(Cl)cc2)c(=O)c2cc3sccc3n12,inactive: 127%
14,COC(=O)c1scc(-c2ccc(C)cc2)c1S(=O)(=O)Nc1ccc(F)cc1F,inactive: 72%
15,Cc1ccc(CN2CCCn3nc(C(=O)NC(C)C)cc3C2=O)cc1,active: -2%
16,Cc1ccc(N2CCN(S(=O)(=O)c3cc(C(=O)Nc4cc(Cl)cc(Cl)c4)ccc3F)CC2C)cc1 (configuration not stated),inactive: 71%
17,CC(=O)c1ccc(NC(=O)C2Cc3ccccc3N2C(=O)c2ccccc2)cc1 (configuration not stated),inactive: 153%
18,CC(=O)Nc1nonc1-c1nnc(SCC(=O)Nc2cccc(F)c2)n1-c1ccccc1,inactive: 27%
19,Cc1ccc(-n2c(SCC(N)=O)nc(O)c(C)c2=O)cc1,inactive: 113%
20,COc1ccc(C)cc1NC(=O)Cn1c(=O)c(C(F)(F)F)nc2ccccc21,inactive: 87%
21,CN(C)S(=O)(=O)c1ccc2c(c1)N(CC(=O)NCc1ccc(F)cc1)C(=O)CS2,inactive: 146%
22,COc1ccccc1N1CCN(c2ccc(=O)n(CC(=O)NCc3ccc(OC(C)C)cc3)n2)CC1,inactive: 89%

row,Structure (SMILES),survival
1,Cc1ccc(NC(=O)Cn2cc3c(n2)CCCC3)c(Cl)c1,inactive: 93%
2,COc1ccc(Oc2c(C(F)(F)F)oc3c(CN4CCCC(C)C4)c(O)ccc3c2=O)cc1 (configuration not stated),inactive: 67%
3,Cc1nn(C)c2c1c(C(F)(F)F)cc(=O)n2CC(=O)NCCC(C)C,inactive: 74%
4,Cc1cccc(-c2nc3scc(CCNS(=O)(=O)c4ccc(Oc5ccccc5)cc4)n3n2)c1,inactive: 63%
5,CC1=C(c2ccc(C)cc2)S(=O)(=O)NC1=NCCCN1CCN(c2ccccc2F)CC1,inactive: 59%
6,COc1ccc(-n2nc(C(=O)N3CCN(c4ccc(F)cc4)CC3)c3c4ccccc4n(C)c3c2=O)cc1,inactive: 79%
7,COc1ccc(-c2cc3ccc(O)c(CN4CCC(C)CC4)c3oc2=O)cc1,inactive: 70%
8,O=C(Nc1ccc2oc(-c3cccnc3)nc2c1)c1ccc(-c2ccccc2OC(F)(F)F)o1,inactive: 83%
9,COc1ccc(-n2nc(C(=O)Nc3cc(OC)c(OC)c(OC)c3)c(=O)n(C)c2=O)cc1,inactive: 152%
10,O=C1C=CC(=O)N1c1ccc(-c2cnc(-c3ccc(N4C(=O)C=CC4=O)cc3)nc2)cc1,inactive: 92%
11,O=C(O)c1ccc(Nc2nc3ccccc3n3cnnc23)cc1,inactive: 84%
12,CCC1CCc2nc3sc(C(=O)Nc4ccc(C)cc4)c(N)c3cc2C1 (configuration not stated),inactive: 84%
13,COc1ccc(OC)c2sc(N3CCN(C(=O)c4ccc5c(c4)CCCC5)CC3)nc12,inactive: 72%
14,COc1ccccc1C(=O)NCCn1cc(SCc2ccc(C)cc2)c2ccccc21,active: 3%
15,CCCCCn1c(=O)[nH]c2cc(C(=O)NCc3ccc(Cl)cc3)ccc2c1=O,inactive: 83%
16,COc1ccc(C2CC(=O)N(Cc3ccc(F)cc3)c3ccccc3S2)cc1OC (configuration not stated),inactive: 88%
17,O=C(CN1CCN(Cc2cccc(Cl)c2)C1=O)NCc1ccc(F)cc1,inactive: 63%
18,CCN(c1ccccc1C)S(=O)(=O)c1ccc(N2CCCCS2(=O)=O)cc1,inactive: 140%
19,c1ccc(N2CCN(Cc3cccn3-c3nnc(N4CCN(C5CCCCC5)CC4)s3)CC2)cc1,inactive: 88%
20,CCc1ccccc1NS(=O)(=O)c1ccc2c(c1)CCN2C(=O)C1CC1,inactive: 72%
21,CCc1ccc(-c2nn(CC(=O)NC3CCCCC3)c3c2cnc2ccc(C)cc23)cc1,inactive: 73%
22,CCOc1ccc(CCNC(=O)c2nn(-c3ccc(OC)c(Cl)c3)c(=O)c3c2c2ccccc2n3C)cc1OCC,inactive: 88%

row,Structure (SMILES),survival
1,O=C(c1ccco1)N1CCN(Cc2cccc(Br)c2)CC1,inactive: 94%
2,COc1ccccc1NC(=O)NC1(C(=O)N2CCc3ccccc32)CCCCC1,inactive: 102%
3,Cc1nn(-c2ccccc2)c(-n2cccc2)c1C(=O)NCCc1ccc(Cl)cc1,active: 2%
4,Cn1c(=O)c2cc(C(=O)NCCCN3CCN(c4cccc(Cl)c4)CC3)sc2c2ccccc21,inactive: 63%
5,O=C(COc1ccc(Br)cc1Cl)Nc1ncn[nH]1,inactive: 74%
6,CN=C1SC(CC(=O)NC)C(=O)N1C (configuration not stated),inactive: 110%
7,O=C(Nc1ccc(Br)cc1)c1ccc(F)c(S(=O)(=O)N2CCCc3ccccc32)c1,inactive: 57%
8,CC(=O)Nc1ccc(N(C)C(C)=O)cc1,inactive: 110%
9,CC(C)Cn1c(=O)c2sccc2n2c(CCCC(=O)NCCc3ccc(Cl)cc3)nnc12,inactive: 96%
10,CC(C)NC(=O)c1ccc(-n2c(-c3ccccc3)cc3c2CCCC3)cc1,inactive: 86%
11,COCCCNC1CC(=O)N(c2ccc(OC)cc2)C1=O (configuration not stated),inactive: 117%
12,CCc1ccc(NC(=O)CSc2nc(-c3ccccc3Cl)nc3c2Cc2c(CO)cnc(C)c2O3)cc1,inactive: 108%
13,COc1ccc(OCC(=O)Nc2ccc3c(c2)nc(CCNC(=O)c2ccco2)n3C)cc1,inactive: 98%
14,CCc1ccc2nc(N(Cc3cccnc3)C(C)=O)sc2c1,inactive: 90%
15,CCOC(=O)c1ccc(CN(Cc2ccc(Cl)cc2Cl)S(=O)(=O)c2ccc(F)c(C)c2)cc1,inactive: 113%
16,Cc1ccccc1OCCCn1c(-c2ccc(Cl)cc2)nc2ccccc2c1=O,inactive: 73%
17,O=C(Nc1nnc(S(=O)(=O)N2CCCC2)s1)c1ccccc1Br,inactive: 69%
18,Cn1c(=O)oc2cc(S(=O)(=O)N3CCC(C(=O)NCc4ccc(F)cc4)CC3)ccc21,inactive: 84%
19,COc1ccc(Nc2nc3cc(Cl)c(Cl)cc3n3cnnc23)cc1Cl,inactive: 88%
20,CCOC(=O)c1ccc(NC(=O)CSc2nnc(CNC(=O)c3ccc(OC)cc3)n2CC)cc1,inactive: 134%
21,CC(C(=O)NCc1ccc2c(c1)OCO2)N(c1ccccc1)S(C)(=O)=O (configuration not stated),inactive: 115%
